# From PubChem BioAssay AID686978 (National Center for Advancing Translational Sciences (NCATS), 2013)
# “And” between values parts separate entries of the source, which are not always exact repeats. Identical values can stand only once. Among all 420,000 compounds or so, about 64,000 (15%) were called active. This list was built around the results that the source calls inconclusive (neither active nor inactive); the mix of calls is not that of the screen. Calls follow the shape of the dose curve; as a rule, active = well fitted inhibition curve with a large enough effect; inconclusive = small, poorly fitted or top-dose-only effect; inactive = flat fitted curve, though single readings scatter. Potencies of inconclusive entries are doubtful fits and often do not repeat.
# Test: qHTS for Inhibitors of human tyrosyl-DNA phosphodiesterase 1 (TDP1): qHTS in cells in absence of CPT; also: nearly all actives have a fitted effect of over 55% in size
# Conditions: DT40 Tdp1-/- hTDP1 cells, no CPT, ATP luminescence, 48 h; activity change, negative = growth inhibition: at 46.2 µM (top of the series) unless noted
# Outline: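 Growth of hTDP1-complemented DT40 Tdp1-knockout cells is measured by ATP luminescence after at least 48 hr compound exposure at 37 °C, with DMSO substituting for the 20 nM CPT used in the parallel screen.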
# % is scaled to controls: 0 for no effect and ±100 for the full control effect; potency is read from the fitted curve at half-maximal effect; tags tell the direction and shape of the fitted curve.
Compound,Potency,"activity change, negative = growth inhibition"
Cc1nc2ccccc2c(=O)n1NC(=O)/C=C/c1ccccc1Cl,"inconclusive: 23.1 µM [inhibitor, partial curve]",
CS(=O)(=O)N1CCN(C2CCN(Cc3ccccc3)CC2)CC1,inactive,
COc1cccc(/C=C/C(=O)OCC(=O)c2ccccc2)c1OC,"inconclusive: 29.1 µM [inhibitor, single point]",
CC(C)C(NC(=O)c1c(F)cccc1F)C(=O)NCCc1ccc(S(N)(=O)=O)cc1 (stereo not drawn),inactive,
Cc1ccc(-c2nn(-c3cc(Cl)ccc3[N+](=O)[O-])c(=O)c3ccccc23)cc1C,"inconclusive: 13 µM [inhibitor, partial curve]",
CN(C)c1ccc(CNC(=O)Cn2ccc3cc(S(=O)(=O)N4CCCCCC4)ccc32)cc1,active: 5.8 µM,
O=C(c1ccccc1)c1ccccc1N1C(=O)C=CC1=O,active: 1.64 µM,
CC1(C)Cc2ccccc2-c2nnc(SCC(=O)N3CCN(c4ccccc4)CC3)n21,"inconclusive: 29.1 µM [inhibitor, single point]",
CCc1ccc(N2CC(C(=O)OCC(=O)Nc3ccc([N+](=O)[O-])cc3)CC2=O)cc1 (stereo not drawn),inactive,
CC(NC(=O)c1ccccc1F)c1cccc2ccccc12 (stereo not drawn),"inconclusive: 16.4 µM [inhibitor, single point]",
CN(C)C(CNC(=O)c1ccc2ccccc2c1)c1ccco1 (stereo not drawn),"inconclusive: 20.6 µM [inhibitor, single point]",
CCc1nnc2c3ccccc3nc(N3CCN(c4cc(C)ccc4C)CC3)n12,active: 1.3 µM,
Cc1ccccc1CNC(=O)c1ccc(CN2CC(=O)N3CCCCC3C2=O)cc1 (stereo not drawn),inactive,
CCc1cccc(C)c1NS(=O)(=O)c1cc(Br)cnc1N,active: 18.4 µM,
C/C=C/c1ccc(OCC(O)CN(C)Cc2ccc(SC)cc2)c(OC)c1 (stereo not drawn),active: 23.1 µM,
C=CCc1cc(/C=C2/NC(=O)N(CC)C2=O)cc(OCC)c1OCc1ccc(C(=O)O)cc1,"inconclusive: 18.4 µM [inhibitor, single point]",
CCCN(CCC)C(=O)C1CCCN(c2ncnc3c2nc2n3CCCCC2)C1 (stereo not drawn),active: 20.6 µM,
COc1ccc(-c2cc(C3CCN(C(=O)OC(C)(C)C)CC3)[nH]n2)cc1,"inconclusive: 18.4 µM [inhibitor, single point]",
COc1cccc(N2CCN(C(=O)CN(c3ccc(C)cc3)S(=O)(=O)c3c(C)n[nH]c3C)CC2)c1,,inconclusive: -30.3% [inhibitor]
CC1(C)Cc2ccccc2C(/C(C#N)=N/O)=N1,active: 23.1 µM,
CC(=O)Nc1cc(C(=O)Nc2ccc3c(c2)N(C)C(=O)c2ccccc2S3)ccc1C,active: 0.92 µM,
Cc1nc(N2CCN(C)CC2)c2nnn(Cc3ccccc3)c2n1,"inconclusive: 20 µM [inhibitor, single point]",
CCc1ccc(C)c(OC(=O)c2cncc(Br)c2)c1,inactive,
CCOc1cc(C2NN=C(c3ccccc3)S2)ccc1OCc1ccc(F)cc1 (stereo not drawn),"inconclusive: 10.3 µM [inhibitor, partial curve]",
Cc1ccccc1CN1C(=O)c2ccccc2S(=O)c2ccc(C(=O)NCc3ccc4c(c3)OCO4)cc21 (stereo not drawn),inactive,

Compound,Potency,"activity change, negative = growth inhibition"
CCOC(=O)C1=CNS(=O)(=O)NC1c1ccc2ccccc2c1 (stereo not drawn),inactive,
Cc1cc(N2CCCC(C(=O)Nc3cccc(Cl)c3)C2)n2ncnc2n1 (stereo not drawn),"inconclusive: 29.1 µM [inhibitor, single point]",
C=CCN(CC=C)C(=O)c1ccc(OC2CCN(S(=O)(=O)N(C)C)CC2)cc1,"inconclusive: 16.4 µM [inhibitor, single point]",
CSc1nc(SCC(=O)NC(c2ccccc2)c2ccccc2)c2c3c(sc2n1)CN(C)CC3,"inconclusive: 25.9 µM [inhibitor, single point]",
COc1ccc2[nH]c(=O)c(CN(Cc3cccnc3)C(=O)Nc3ccccc3)cc2c1,"inconclusive: 25.9 µM [inhibitor, single point]",
COC(OC)C1(C)C(C#N)=C(N)Oc2c1c(=O)oc1ccccc21 (stereo not drawn),"inconclusive: 7.31 µM [inhibitor, partial curve]",
COc1ccc(C(C(=O)NC(C)(C)C)N(C(=O)CCC(=O)Nc2cc(C)on2)c2cccc(F)c2)cc1 (stereo not drawn),"inconclusive: 29.1 µM [inhibitor, single point]",
CCNc1nc(C#N)nc(NCC)n1,inactive,
Cc1ccc(-c2cn(-c3ccccc3)c(=S)[nH]2)cc1C,"inconclusive: 20.6 µM [inhibitor, partial curve]",
OCCC1CN(CC2CCCCC2)CCN1CC1CCCCC1 (stereo not drawn),"inconclusive: 14.6 µM [inhibitor, partial curve]",
CCCNC(=O)NC(=O)CSc1nc2ccccc2c(=O)n1Cc1ccncc1,inactive,
Cc1nc2c(c(C)nn2C(C)(C)C)c(C)c1CCC(=O)Nc1ccc(Br)cc1Br,active: 25.9 µM,
CCOc1ccc(-c2onc(C(F)(F)F)c2-c2cscn2)c(O)c1,"inconclusive: 35.5 µM [inhibitor, single point]",
CCCCC[n+]1ccn(C2=C([O-])c3ccccc3C(=O)/C2=N\S(=O)(=O)c2ccc(Cl)cc2)c1,active: 2.91 µM,
CN(C(=O)c1cccc(NC(=O)Cc2ccc(NC(=O)C3CCN(C(=O)C4CC4)CC3)cc2)c1)C1CCC1,inactive,
CCOC(=O)CN1C(=O)C(=O)c2cc(C)ccc21,active: 14.6 µM,
CCOC(=O)C1(C)NC(c2cccs2)C2C(=O)N(c3ccc(OC)cc3)C(=O)C21 (stereo not drawn),active: 18.4 µM,
CC(CCc1ccco1)NC(=O)Nc1cccc(F)c1 (stereo not drawn),inactive,
COc1cccc(-n2nnnc2SCC(=O)Nc2ccc(C(C)=O)cc2)c1,active: 23.1 µM,
CC1Oc2ccccc2C=C1/C=N/NC(=O)[C@@H](C)NC(=O)OC(C)(C)C (stereo partly drawn),"inconclusive: 23.1 µM [inhibitor, single point]",
NC(=O)NCc1cccs1,inactive,
O=C(Cc1ccc(F)cc1)Nc1ccc2[nH]ncc2c1,"inconclusive: 20.6 µM [inhibitor, single point]",
CCn1c(COc2ccccc2)nnc1SCC(=O)NCc1ccco1,inactive,
COc1ccc(CNC(=O)CCn2c(=O)oc3ccccc32)c(OC)c1,inactive,
C=CCNc1ncnc2c1ncn2[C@H]1CN(C2CCCC2)C[C@@H](CO)O1,inactive,

Compound,Potency,"activity change, negative = growth inhibition"
CCCCc1cc(=O)oc2cc(C)cc(OCC(=O)N3C[C@H]4C[C@@H](C3)c3cccc(=O)n3C4)c12,"inconclusive: 25.9 µM [inhibitor, partial curve]",
Cc1nn(C2CCS(=O)(=O)C2)c2nc(C3CC3)cc(C(=O)Nc3cccc(C#N)c3)c12 (stereo not drawn),"inconclusive: 18.4 µM [inhibitor, single point]",
N#C/C(=C/c1cccs1)c1nc2ccccc2[nH]1,"inconclusive: 29.1 µM [inhibitor, single point]",
CN(C)c1ccc(/C=N/NC(=O)CCCO)cc1,inactive,
COc1ccccc1N1CCN(C(=O)/C=C/c2ccc(C)cc2)CC1,active: 13 µM,
Cc1ccc(-n2ncc3c(NNC(=O)c4ccco4)ncnc32)c(C)c1,inactive,
O=S(=O)(NCC(O)c1ccccc1)c1cc(Cl)sc1Cl (stereo not drawn),"inconclusive: 6.51 µM [inhibitor, single point]",
C/C(=N/NC(=O)C1CC1(c1ccccc1)c1ccccc1)c1ccco1 (stereo not drawn),"inconclusive: 23.1 µM [inhibitor, single point]",
O=C(CSC1=NCCS1)Nc1nc2c(s1)CCCC2,"inconclusive: 23.1 µM [inhibitor, single point]",
O=C(CN1C(=O)c2cccc([N+](=O)[O-])c2C1=O)N1CCN(S(=O)(=O)c2ccccc2)CC1,inactive,
COc1ccc(CC(=O)Nc2cccc(-c3nnc(-c4ccco4)o3)c2)cc1,active: 7.31 µM,
N#Cc1c(N)nc(SCC(=O)NCCc2ccccc2)c(C#N)c1-c1cccs1,inactive,
O=c1[nH]c2ccc([N+](=O)[O-])cc2nc1/C=C(\O)c1ccccc1,"inconclusive: 6.51 µM [inhibitor, full curve, poor fit]",
O=c1cc(CN2CCCCCCC2)c2c(ccc3ccccc32)o1,"inconclusive: 29.1 µM [inhibitor, single point]",
CCC1=NN(C(=O)Cc2ccc(OC)c(OC)c2)C(O)(C(F)(F)F)C1 (stereo not drawn),inactive,
S=C(NCc1ccco1)Nc1cccc(Cl)c1,"inconclusive: 16.4 µM [inhibitor, partial curve, poor fit]",
COc1ccc(CN2CSC(=S)N(Cc3ccccc3)C2)cc1,"inconclusive: 20.6 µM [inhibitor, single point]",
CCN(CC)c1ccc(NC(=O)c2cnc3ccccn3c2=O)c(C)c1,"inconclusive: 18.4 µM [inhibitor, single point]",
O=C(c1ccc2c(c1)[nH]c(=S)n1c3ccccc3nc21)N1CCN(c2ncccn2)CC1,"inconclusive: 23.1 µM [inhibitor, partial curve]",
O=C(CCCN1CCC(O)(c2ccc(Br)cc2)CC1)c1ccc(F)cc1,"inconclusive: 14.3 µM [inhibitor, single point] and inconclusive: 29.1 µM [inhibitor, single point]",
Cc1ccc(-c2nn(-c3ccccc3)cc2/C=N/NC(=O)CSc2nnc(C)n2-c2ccccc2)cc1,"inconclusive: 20.6 µM [inhibitor, single point]",
CC(C)N(C(C)C)S(=O)(=O)c1ccc(N2CCc3ccccc3C2)nc1,"inconclusive: 18.4 µM [inhibitor, single point]",
CC(=O)N1CCc2c(sc(NC(=O)CS(=O)(=O)c3ccc(F)cc3)c2C(N)=O)C1,inactive,
